From paper PMC4242493
This is one part of the list. The list includes weakly bound sequences.

The sequences below were run against MaxL homodimer (UniProt P61244) (assay: universal protein-binding microarray (PBM)). Details: PBS-based mixture, 10 nM His-tagged protein dimer, 2% milk, 200 ng/uL BSA, 50 ng/uL salmon testes DNA, 0.02% TX-100; detection with Alexa 488 anti-His …; high values mean tight binding; most listed sequences are background and not binding sites; double strand, one strand shown.
UniProt P61244, sequence (P61244 whole entry): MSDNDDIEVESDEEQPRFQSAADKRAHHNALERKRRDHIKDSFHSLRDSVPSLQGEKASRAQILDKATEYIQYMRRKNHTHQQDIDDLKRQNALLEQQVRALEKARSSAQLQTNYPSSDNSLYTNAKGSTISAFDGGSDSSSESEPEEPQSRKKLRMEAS

Row | Sequence | binding signal (normalized occupancy)
1 | CGAGTATA | 0.079
2 | GGCGCGCC | 0.0668
3 | GAGTGAAC | 0.0708
4 | CGACTTGA | 0.0698
5 | ACAGAATA | 0.0789
6 | AATGATGG | 0.0844
7 | ATATCCAA | 0.0793
8 | ACTCACCC | 0.0796
9 | AGAGTGCG | 0.0758
10 | GACTTAAC | 0.0746
11 | ATCCGGGA | 0.0686
12 | AAAGTGAC | 0.0689
13 | TCCACAAA | 0.0726
14 | AGTGTTAT | 0.0819
15 | GAGGAGAC | 0.0713
16 | GGGGGAGA | 0.0754
17 | AGCAAGTC | 0.0699
18 | AAGCGTTC | 0.0728
19 | CGAGATCC | 0.0744
20 | GGGCTAAC | 0.0672
21 | CCGGAAAA | 0.0683
22 | ACGTAACC | 0.0727
23 | GCCTTCGA | 0.0686
24 | AGTAACGC | 0.0764
25 | AGGGGTCG | 0.0779

Row | Sequence | binding signal (normalized occupancy)
26 | GAGTATCA | 0.0776
27 | CGCTAGGA | 0.0709
28 | GAAGGTTA | 0.0687
29 | CAAGCTGA | 0.0702
30 | ATGCTAGG | 0.0765
31 | AATACCAC | 0.0839
32 | GTCACCAA | 0.0774
33 | CTAAGATA | 0.0748
34 | CGGAAACA | 0.0731
35 | ATCTACAC | 0.082
36 | GCACGGGA | 0.0842
37 | ACGGTCTA | 0.075
38 | CGTAAAAC | 0.0743
39 | AATCTAGT | 0.0739
40 | AGGCCCTG | 0.072
41 | AGCTTCGA | 0.0672
42 | ACGACCCG | 0.0732
43 | AGGCACCA | 0.0768
44 | CCTGTGCA | 0.0816
45 | CAACGTCC | 0.0732
46 | CTACTCTA | 0.0742
47 | CACACATA | 0.0896
48 | AAAAATCG | 0.0693
49 | CTCGATGA | 0.0797
50 | CACTGAGC | 0.0724

Row | Sequence | binding signal (normalized occupancy)
51 | ATAGCGGC | 0.0744
52 | AAAAACCA | 0.0806
53 | CAGCCACA | 0.0725
54 | ATAATCTC | 0.0801
55 | CTCGCTTA | 0.073
56 | AATAGTGA | 0.0748
57 | ACTCAAGC | 0.0729
58 | ATGTGCCA | 0.0923
59 | ATGTTCCC | 0.0863
60 | ACACGGCA | 0.0781
61 | ATCGGAAC | 0.0699
62 | AACCCTGT | 0.0728
63 | GGCGTGTA | 0.0895
64 | CGCTGAAG | 0.0697
65 | AAAGCCGT | 0.068
66 | CCTTACGC | 0.0734
67 | CGAAACCA | 0.0791
68 | CGGGCGCA | 0.0655
69 | GTTAGAGA | 0.0753
70 | AAAGGCCA | 0.0803
71 | CATTTGTA | 0.0834
72 | ACATGGGC | 0.0848
73 | ACAACATG | 0.0952
74 | AAGAAACG | 0.0781
75 | TACAGTGA | 0.0778

Row | Sequence | binding signal (normalized occupancy)
76 | GGAATTCA | 0.0721
77 | TCCTACCA | 0.0734
78 | GTTCTTGA | 0.0755
79 | TCAGTACA | 0.0794
80 | ATCTCAAG | 0.0719
81 | CCCAAATC | 0.0732
82 | ACCAGCCT | 0.0723
83 | CCCGGCAG | 0.0676
84 | CCCTCAGG | 0.0699
85 | AGATCAGG | 0.0763
86 | GTTATACA | 0.0889
87 | CAAATTGA | 0.0747
88 | CAAGGCAG | 0.0762
89 | ACTACCGA | 0.0753
90 | AGGCTCAG | 0.0713
91 | ATTTTACC | 0.0827
92 | GCTCGTTA | 0.0725
93 | CGCCGTAG | 0.0688
94 | CCGGACCA | 0.0766
95 | GGGCGAAC | 0.0744
96 | GCATAAGC | 0.0761
97 | ATTTTCGC | 0.071
98 | GACTGAAC | 0.071
99 | CGCGCAGA | 0.0714
100 | AAAGGTAC | 0.0713

Row | Sequence | binding signal (normalized occupancy)
101 | GCTCGACC | 0.0677
102 | AACTATTA | 0.076
103 | TCAACTGA | 0.0743
104 | CTGTGCTC | 0.0735
105 | ACAGTAGG | 0.0754
106 | ACATCTAA | 0.0817
107 | AGACCAAT | 0.0706
108 | AGGTTCCC | 0.0714
109 | CTAAGTCA | 0.0739
110 | CTACGCGA | 0.0688
111 | CATGGTCC | 0.0891
112 | TAAGCCCA | 0.0743
113 | GTTCGCGA | 0.0668
114 | GCCACCAA | 0.072
115 | ACCTCTGC | 0.0759
116 | AGCAAACA | 0.0822
117 | AAAAGCAA | 0.0737
118 | ACCGTTCG | 0.0729
119 | GAACCGAA | 0.0654
120 | AATGGCAT | 0.0907
121 | GAAACCAC | 0.0834
122 | CGTTACCC | 0.0797
123 | CTAAGGGC | 0.0716
124 | GAGTGATC | 0.0724
125 | AGCAGATA | 0.0707

Row | Sequence | binding signal (normalized occupancy)
126 | CTGCTAAA | 0.0677
127 | ACTAGTTA | 0.0749
128 | AAGTCCCA | 0.0706
129 | AGTACGTA | 0.0786
130 | GGCTACTA | 0.0714
131 | AAAGCCCC | 0.0704
132 | AGAAACAT | 0.0809
133 | GAATGGCA | 0.0776
134 | ACAGTTAG | 0.0725
135 | GTAAGGAA | 0.0733
136 | CTGGGGGC | 0.0675
137 | ATCGAAGG | 0.0715
138 | AAGGTGCA | 0.0746
139 | TCTGTGAA | 0.0733
140 | ACATTTGA | 0.0788
141 | AACTACTA | 0.0738
142 | GTAGATCA | 0.074
143 | AAGTGAAG | 0.076
144 | TCTAATCA | 0.0772
145 | CTCCGACC | 0.0732
146 | CAGTACCG | 0.0729
147 | ACTATCAC | 0.0761
148 | CTCCCTGA | 0.0717
149 | AGGTGCTA | 0.0779
150 | ATGGCATA | 0.085

Row | Sequence | binding signal (normalized occupancy)
151 | CACGCGGC | 0.151
152 | CTCGGAGA | 0.0662
153 | CTCTATCA | 0.0747
154 | TCACCCCA | 0.0836
155 | AAATACTA | 0.0746
156 | AAGAGTGC | 0.0752
157 | GGGGTTGA | 0.0883
158 | TAAACGAA | 0.0728
159 | ACAGCAGA | 0.0725
160 | GGCTGGAA | 0.0729
161 | ATCTGCAA | 0.0757
162 | AAAAACGG | 0.0691
163 | TGACCACA | 0.0815
164 | GTATAAAA | 0.0856
165 | ATGGGAAC | 0.0777
166 | CTAAGACA | 0.0843
167 | ATTTAACA | 0.0772
168 | ACGGCGCA | 0.0778
169 | ATCGACTA | 0.0763
170 | ATCGGCGC | 0.0749
171 | CGACCTTA | 0.0767
172 | CTCTACTA | 0.0757
